Measurements taken from PubChem BioAssay (NCI).
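Cells were grown in 96-well plates and exposed to each compound for 48 hours at five concentrations; endpoints were interpolated linearly between bracketing concentrations, or set to the highest concentration if not reached. Here, GI50 denotes the concentration required for 50% inhibition of growth. TGI denotes the concentration required for complete inhibition of growth.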

tested on: NCI-H322M lung; assay: DTP human tumour cell line panel, 48 h

| SMILES | TGI | GI50 |
| --- | --- | --- |
| COc1cc2oc(-c3ccc(O)cc3)cc(=O)c2c(OC)c1OC | > 100 µM |  |
| O=C1c2ccccc2-c2c1c1ccccc1c(=O)n2Cc1ccccc1 | > 100 µM |  |
| CC(=O)OC[C@]12CC[C@H]3[C@@H](C[C@H]4O[C@]45[C@@H](O)C=CC(=O)[C@]35C)[C@@H]1CC[C@@H]2[C@H](C)[C@H]1CC(C)=C(C)C(=O)O1 | 2.43 µM | 1.09 µM |
| Nc1cc(Cl)cc2cc(Cl)cnc12 | > 100 µM |  |
| CCCCNC(=S)Nc1nc(C(=O)NNC(=S)NCC)cs1 | > 100 µM |  |
| Cc1ccc(N(C(=O)CC(=O)NN)C(=O)c2ccccc2Cl)cc1 | > 100 µM |  |
| CCOC(=O)c1cc(/C(=N\O)c2cc(OC)c(OC)c(OC)c2)n2cc(C)cc(C)c12 | > 100 µM | 4.32 µM |
| CN(C)CCOc1ccc(/C(=C(/CCCCCCCCCC[P+](c2ccccc2)(c2ccccc2)c2ccccc2)c2ccccc2)c2ccccc2)cc1 | 1.32 µM | 0.273 µM |
| CC[C@]12C=CCN3CC[C@@]4(c5cc(Br)c(OC)c([N+](=O)[O-])c5N(C)[C@H]4[C@@](O)(C(=O)OC)[C@@H]1OC(C)=O)[C@@H]32 | > 100 µM |  |
| COC(=O)C1C2OC(C)(C)OC2CN1S(=O)(=O)c1ccc(C)cc1 (stereo not drawn) | > 100 µM |  |
| Fc1cc(F)c(COc2cc(Cn3cnc4c(Cl)nc(Cl)nc43)ccc2C23CC4CC(CC(C4)C2)C3)cc1F | 40.4 µM | 18.6 µM |
| COc1cc(OC(=O)c2c(O)cc(O)c(O)c2C)cc(C)c1C(=O)Oc1cc(C)c(C(=O)O)c(O)c1 | > 100 µM |  |
| CCOC(=O)CC[C@H](N)C(=O)N[C@@H](Cc1ccc(N(CCCl)CCCl)cc1)C(=O)OCC | 20.2 µM |  |
| COC(=O)c1cc(Br)c(Br)n1C | > 100 µM |  |
| CCCCCCCCCCCCCC1CCC(CC)N1 (stereo not drawn) | 21.7 µM |  |
| O=S(=O)(O)CCSSCCS(=O)(=O)O | > 1000 µM |  |
| Cc1ccc(C(=NN=C(N)N)c2ccc(C)cc2)cc1 | 15 µM | 0.548 µM |
| CCC#CC[C@H]1C/C=C2/C(=O)C=C[C@@H]2C/C=C\CCCC(=O)O1 | 7.47 µM | 1.59 µM |
| Cc1ccccc1N(CCC#N)C1=NN(C(=O)CC(=O)Nc2ccccc2)C(c2ccccc2)C1 (stereo not drawn) | > 100 µM |  |
| Cc1[nH]c(=O)[nH]c(=O)c1/C=C/C(=O)NC(CO)CC(C)C (stereo not drawn) | > 375 µM |  |
| Nc1ncc(-c2cnn(CCO)c2)c2scc(-c3ccc(NC(=O)Nc4cccc(F)c4)cc3)c12 | 3.12 µM | 0.363 µM |
| O=C(CSc1ncccn1)N/N=C/c1ccccc1OCc1ccccc1 | > 100 µM |  |
| CC/C=C\C[C@@H]1C/C=C2/C(=O)C=C[C@H]2C/C=C\CCCC(=O)O1 | 15 µM | 4.57 µM |

| SMILES | TGI | GI50 |
| --- | --- | --- |
| CCc1[nH]c(=O)nc(N)c1-c1ccc(N2CCCCC2)c([N+](=O)[O-])c1 | > 100 µM |  |
| COc1ccc2c(c1)C(=O)c1c-2n(CCCn2ccnc2)c(=O)c2ccccc12 | 9.28 µM | 1.3 µM |
| Clc1nc(Cl)c2ncn(Cc3cccc(COc4cccc(OCc5cccc(Cn6cnc7c(Cl)nc(Cl)nc76)c5)c4)c3)c2n1 | 36.8 µM | 18.5 µM |
| CCOC1=NC(=O)CC(c2ccccc2)S1 (stereo not drawn) | > 100 µM |  |
| O=C(O)c1cccc(Nc2c(C(=O)O)cccc2[N+](=O)[O-])c1 | > 100 µM |  |
| CCN(CC)c1ccc(C(=N)c2ccc(N(CC)CC)cc2)cc1 | 9.32 µM | 2.09 µM |
| COc1nn(Cc2ccccn2)c2ccc([N+](=O)[O-])cc12 | > 100 µM |  |
| N#Cc1ccc(NC(=NCC(=O)O)Nc2cccc3ccccc23)cc1 | > 10 µM |  |
| COc1ccc(C(=O)COc2cccc(/C=C3\COc4ccc5ccccc5c4C3=O)c2)cc1 | > 100 µM | 15.6 µM |
| COC(=O)c1ccccc1/C=C1\Cc2c(ccc3c2CCC3)C1=O | > 100 µM |  |
| CN1CCCC2C(c3ccccc3)C(C3=NCCCC3)C(c3ccccc3)CC21 (stereo not drawn) | > 100 µM |  |
| N=c1c2ccccc2nc2oc3cc([N+](=O)[O-])ccc3n12 | > 100 µM |  |
| c1ccc(C2=NNC3c4ccccc4-c4ccccc4N3C2)cc1 (stereo not drawn) | > 100 µM |  |
| Cc1ccc(Nc2nc3c(s2)C(=O)c2ccccc2C3=O)c(C)c1 | 27.9 µM |  |
| O=C1C2=Cc3ccccc3CCN2c2ccccc21 | > 100 µM |  |
| CC12Nc3c(Cl)cc(Cl)cc3N1C(=O)c1ccccc12 (stereo not drawn) | > 100 µM |  |
| Cc1cccc2nc(-c3ccccc3)cc(=O)n12 | > 100 µM |  |
| CC(=O)OC1C=C(C=O)C(O)(C=O)C2(C)CCCC(C)(C)C12 (stereo not drawn) | 11.3 µM |  |
| Cc1cc(SCC(=O)c2ccccc2)nc2ccccc12 | > 100 µM |  |
| COc1ccc(CC2Cc3ccccc3CCN2)cc1OC (stereo not drawn) | > 50 µM |  |
| CC(=O)NC1C(OCc2ccccc2)OC(CO)C(O)C1OC(C)C(=O)NC(C(=O)NC(CCC(=O)NCCCC(=O)Nc1ccc2c(c1)CN1C(=O)c3ccccc3C1=N2)C(N)=O)C(C)C (stereo not drawn) | > 100 µM |  |
| COc1cc(C2=NN(C(C)=O)C(c3ccc(OC(C)=O)cc3OC(C)=O)O2)c(OC(C)=O)c2ccccc12 (stereo not drawn) | 35.5 µM | 0.546 µM |
| CCOC(=O)/C(C#N)=C/Nc1c(C)n(C)n(-c2ccccc2)c1=O | > 100 µM |  |

| SMILES | TGI | GI50 |
| --- | --- | --- |
| COc1cc[nH]c1/C=C1\C(=O)Nc2ccccc21 | > 25 µM | 9.71 µM |
| COc1ccccc1C[C@@H]1OC2(C=CC(=O)CC2SC(=O)c2ccccc2)O[C@H]1Cc1ccccc1OC (stereo partly drawn) | 18.2 µM |  |
| O=C1Cc2c([nH]c3ccc(Br)cc23)-c2cc(Br)ccc2N1 | > 100 µM |  |
| NCCCC[C@@H]1NC(=O)[C@H]2CCCN2C(=O)[C@H](Cc2ccccc2)NC(=O)[C@H](Cc2ccccc2)CNC1=O | > 100 µM | > 100 µM |
| COc1ccc2c(c1)CCC1C3(CCCC21C)OCCO3 (stereo not drawn) | 59.3 µM |  |
| CCN(CC)CCN1CC(O)=C(c2nc(-c3ccc(Cl)cc3)cs2)C1=N | 4.35 µM | 1.91 µM |
| CC1=C(C)CC2(CCCCC2=O)S(=O)C1 (stereo not drawn) | > 100 µM |  |
| Cc1cccc(N/C(=C(/C(Cl)=C(Cl)Cl)[N+](=O)[O-])n2nnc3ccccc32)c1 | 64.6 µM |  |
| NC1C/C(=N\O)c2c(Cl)sc(Cl)c21 (stereo not drawn) | > 100 µM |  |
| Cc1sc2nc(N(C)C)oc(=O)c2c1C | > 100 µM |  |
| O=C1CSC(c2ccccc2)N1c1nc2cc3sc(N4C(=O)CSC4c4ccccc4)nc3cc2s1 (stereo not drawn) | > 100 µM |  |
| CC(C)(C)OC(=O)Cc1ccc2c(ccn2Cc2ccccc2)c1 | > 100 µM |  |
| C=CCN1C(=O)/C(=C/c2ccc(Cl)cc2)N=C1SC/C=C/C | > 100 µM |  |
| COc1ccc(NC(=S)Nc2cc(C)ccn2)cc1 | > 100 µM |  |
| N=C1C(=N)c2ccccc2-c2ccccc21.[Cl-].[Ru+2].c1cnc2c(c1)ccc1cccnc12.c1cnc2c(c1)ccc1cccnc12 | > 100 µM |  |
| CC12CCCC(C(=O)O)(C1)[C@H](C(C)(C)C(=O)O)CC2 (stereo partly drawn) | > 100 µM |  |
| Cc1ccc(S(=O)(=O)n2c(-c3ccccc3)c(-c3ccccc3)c3ccccc32)cc1 | > 100 µM |  |
| CC[C@@]1(O)C(=O)OCc2c1cc1n(c2=O)Cc2c-1nc1ccccc1c2/C=N\NC(=O)C[n+]1ccccc1 | > 100 µM |  |
| CCOC(=O)/C=C/CC(C)(C)COC(C)=O | > 10 µM |  |
| C1C2CC3CC1CC(c1nn4c(C56CC7CC(CC(C7)C5)C6)nnc4s1)(C2)C3 | > 100 µM |  |
| CC1(C)C2CC(O)C1(C)CC2=O (stereo not drawn) | > 100 µM |  |
